T1: Sla1 with a C-terminal fluorescent tag (GFP/mCherry screen) (S. cerevisiae, UniProt P32790 1-1244)
T1 construct: Sla1, S. cerevisiae; gene tagged at its endogenous locus, no truncation told; Linker RTLQVD between protein and C-terminal tag; also called Sla1-mCherry; C-terminus of Sla1; source: S. cerevisiae, expressed from its endogenous locus, in live cells; not shown: GFP or mCherry, C-terminal, kept
T1 sequence (looked up): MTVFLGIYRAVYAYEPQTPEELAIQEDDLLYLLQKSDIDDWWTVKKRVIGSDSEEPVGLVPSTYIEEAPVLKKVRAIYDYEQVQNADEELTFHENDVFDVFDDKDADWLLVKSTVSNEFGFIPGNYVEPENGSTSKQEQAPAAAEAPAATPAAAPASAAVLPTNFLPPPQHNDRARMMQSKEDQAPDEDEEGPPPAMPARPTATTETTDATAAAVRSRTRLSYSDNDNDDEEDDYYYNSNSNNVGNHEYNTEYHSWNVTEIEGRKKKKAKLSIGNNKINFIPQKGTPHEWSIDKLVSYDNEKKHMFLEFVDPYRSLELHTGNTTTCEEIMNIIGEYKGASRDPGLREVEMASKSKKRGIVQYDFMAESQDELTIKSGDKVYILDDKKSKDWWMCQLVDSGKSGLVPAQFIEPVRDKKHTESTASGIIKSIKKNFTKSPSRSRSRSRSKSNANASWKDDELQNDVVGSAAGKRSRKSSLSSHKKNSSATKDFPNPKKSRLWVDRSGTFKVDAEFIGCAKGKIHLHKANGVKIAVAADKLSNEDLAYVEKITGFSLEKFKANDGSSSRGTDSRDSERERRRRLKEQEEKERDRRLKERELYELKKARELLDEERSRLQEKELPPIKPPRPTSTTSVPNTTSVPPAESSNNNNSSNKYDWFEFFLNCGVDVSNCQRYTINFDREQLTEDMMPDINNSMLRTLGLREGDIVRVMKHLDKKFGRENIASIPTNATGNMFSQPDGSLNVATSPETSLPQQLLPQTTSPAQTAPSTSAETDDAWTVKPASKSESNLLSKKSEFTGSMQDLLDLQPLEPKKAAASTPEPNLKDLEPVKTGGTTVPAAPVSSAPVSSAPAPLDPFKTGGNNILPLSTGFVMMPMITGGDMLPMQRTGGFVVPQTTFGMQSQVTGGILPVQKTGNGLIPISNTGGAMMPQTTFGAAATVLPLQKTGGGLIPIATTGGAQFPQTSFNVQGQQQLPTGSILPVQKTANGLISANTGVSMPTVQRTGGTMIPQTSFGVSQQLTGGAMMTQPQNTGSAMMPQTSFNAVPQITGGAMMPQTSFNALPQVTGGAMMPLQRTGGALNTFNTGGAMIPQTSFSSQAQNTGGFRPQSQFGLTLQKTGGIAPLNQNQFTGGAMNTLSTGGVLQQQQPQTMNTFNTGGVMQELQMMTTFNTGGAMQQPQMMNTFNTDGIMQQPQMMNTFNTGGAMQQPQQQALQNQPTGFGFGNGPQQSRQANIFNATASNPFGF

T2: Sla1-mNeonGreen (S. cerevisiae, UniProt P32790 1-1244)
T2 construct: Sla1, S. cerevisiae; gene tagged at its endogenous locus, no truncation told; Linker RTLQVD between protein and C-terminal tag; not shown: mNeonGreen, C-terminal, kept
T2 sequence (looked up): T1 sequence (looked up)

T3: mNeonGreen-Sla1 (S. cerevisiae, UniProt P32790 1-1244)
T3 construct: Sla1, S. cerevisiae; gene tagged at its endogenous locus, no truncation told; Linker GS(GGGGS)3ATENNS between N-terminal tag and protein; source: S. cerevisiae, expressed from its endogenous locus, in live cells; not shown: mNeonGreen, N-terminal, kept
T3 sequence (looked up): T1 sequence (looked up)

B1: Las17-GFP (natural protein, S. cerevisiae)
chain: MGLLNSSDKEIIKRALPKASNKIIDVTVARLYIAYPDKNEWQYTGLSGALALVDDLVGNTFFLKLVDINGHRGVIWDQELYVNFEYYQDRTFFHTFEMEECFAGLLFVDINEASHFLKRVQKRERYANRKTLLNKNAVALTKKVREEQKSQVVHGPRGESLIDNQRKRYNYEDVDTIPTTKHKAPPPPPPTAETFDSDQTSSFSDINSTTASAPTTPAPALPPASPEVRKEETHPKHSLPPLPNQFAPLPDPPQHNSPPQNNAPSQPQSNPFPFPIPEIPSTQSATNPFPFPVPQQQFN[about 120 residues not spelt out]NMSSPPPPPVTTFNTLTPQMTAATGQPAVPLPQNTQAPSQATNVPVAPPPPPASLGQSQIPQSAPSAPIPPTLPSTTSAAPPPPPAFLTQQPQSGGAPAPPPPPQMPATSTSGGGSFAETTGDAGRDALLASIRGAGGIGALRKVDKSQLDKPSVLLQEARGESASPPAAAGNGGTPGGPPASLADALAAALNKRKTKVGAHDDMDNGDDW
notes: Las17 (WASP/N-WASP homolog), S. cerevisiae; gene tagged at its endogenous locus, no truncation told; Linker RTLQVD between protein and C-terminal tag; source: S. cerevisiae, expressed from its endogenous locus, in live cells; not shown: GFP, C-terminal, kept
B2: mTurquoise2-Las17 (natural protein)
chain: not shown
notes: Las17 (WASP/N-WASP homolog), S. cerevisiae; gene tagged at its endogenous locus, no truncation told; Linker GS(GGGGS)3ATENNS between N-terminal tag and protein; source: S. cerevisiae, expressed from its endogenous locus, in live cells; not shown: mTurquoise2, N-terminal, kept

Experiments:
Test in all cases: FRET or BRET; acceptor photobleaching in live yeast; inner cytoplasmic (nucleus and vacuole free) areas; GFP/mCherry or mTurquoise2/mNeonGreen pairs
Details in all cases: partners not purified
[1] = target: T1, Sla1 with a C-terminal fluorescent tag …
Sla1-mNeonGreen = target: T2, Sla1-mNeonGreen
mNeonGreen-Sla1 = target: T3, mNeonGreen-Sla1

| Binder | FRET efficiency [1] [%] | FRET efficiency (Sla1-mNeonGreen) [%] | FRET efficiency (mNeonGreen-Sla1) [%] |
| --- | --- | --- | --- |
| B1 | 1.5 | – | – |
| B2 | – | 8.5 | 9.8 |

Reference: publication PMC7218409, “The protein architecture of the endocytic coat analyzed by FRET microscopy” (Molecular Systems Biology, 2020)
